Reference: the supplement of paper PMC11417369
The other results are listed elsewhere or left out.

The sequences below were run on PfAP2-HC AP2 domain (GST-tagged) (assay: gcPBM binding intensity (ln(normalized median fluorescence intensity)); higher = stronger DNA binding).
Procedure, shortened: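 Binding intensity is defined as the maximum Masliner-normalised natural-log median intensity across replicate spots for either probe orientation. It was measured on an Agilent 4 × 180k array of primer-extended double-stranded 36-bp intergenic genomic probes and negative controls, to which GST-tagged P. falciparum DNA-binding domains made in E. coli were applied for 1 h in 1× PBS with 1% milk, 0.2 mg/ml BSA, 0.5% salmon testes DNA and 0.03% Triton X-100. Detection was by Alexa488 anti-GST antibody and scanning at 488 nm.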

Going from “ATATACACATATACATGTACAAATATATATACACAT [XGTACX_site2986]” to “TTACTATTATTATTTTTTATTTTTATTTTATTTATT [TGCATGCA_negctrl_site269]”, the “gcPBM binding intensity (ln)” value rises from 9.88 to 9.93.

First: CACTAAAAGAAACACACACACACACCCATATATATA [CACACA_site4151]
Second: TTGTAAGAAAGACACACACACACATATAAATATGTA [CACACA_site6516]
The “gcPBM binding intensity (ln)” value of the first is higher: 11 for the first, 10.8 for the second.

Compared with “TATTTAAAATAATGTGCAAAAGAATAAATAAATAAA [TGCATGCA_negctrl_site194]”, “TTCATTTTCATATATTGTACAAAATTTTATAAGGTT [XGTACX_site4522]” is lower in “gcPBM binding intensity (ln)” value: 9.74 for the first, 9.58 for the second.

Going from “ATATATATATATAATACACACTAAAGTAACATAATA [CACACA_site5580]” to “TGTATATAATCGAGTGCACACACAAAAAAAAAGTGA [CACACA_site8417]”, the “gcPBM binding intensity (ln)” value rises from 9.85 to 10.3.

First: AAAAAAAAAAAAAAAACACACACATATATATATATA [CACACA_site8571]
Second: TTCATGTCCTATTAATGTACTCTACACACATATAAG [XGTACX_site899]
The “gcPBM binding intensity (ln)” value of the first is higher: 9.9 for the first, 9.89 for the second.

Compared with “TTTATTTATTTTTGTTGTACACTTGTATATATTATT [XGTACX_site6486]”, “ATTTTATATACACTTTGTACTTATTTTATTCTTCTT [XGTACX_site4200]” is lower in “gcPBM binding intensity (ln)” value: 10 for the first, 9.93 for the second.

First: TACGCAACCAAAAGTTGTACTAATTTTTTTTTTTTG [XGTACX_site7432]
Second: ATATATTTTATACATACACACATATAAATATTTTTT [CACACA_site7780]
The “gcPBM binding intensity (ln)” value of the first is lower: 9.55 for the first, 9.83 for the second.

Going from “GGAACAAATAATATCACACATATATATATATATATA [CACACA_site5670]” to “TAATAAATATATTGAAGTACTTATAAAAAGCAATAT [XGTACX_site6262]”, the “gcPBM binding intensity (ln)” value falls from 9.86 to 9.8.

Going from “TACGGGAAAGATAAGAAACACACGGAAAATTAGACG [CACACA_site1661]” to “TTTTTTAATACATATGCATGTTCAAGTACGAAAAAA [TGCATGCA_site641]”, the “gcPBM binding intensity (ln)” value falls from 9.99 to 9.28.

Compared with “TATTAAACTTGACACACACACACACGCATATATAAA [CACACA_site6496]”, “AATAATGTTATAAATTGTACGTGTATTATTCATTAC [XGTACX_site894]” is lower in “gcPBM binding intensity (ln)” value: 10.6 for the first, 9.8 for the second.

Going from “TAATGAGGAAATACAGCACACGTTATTACACTTTTC [CACACA_site5399]” to “AAATTGGTTCATCAATGTACATGTAAAATAAATCAA [XGTACX_site4795]”, the “gcPBM binding intensity (ln)” value falls from 9.73 to 9.7.

First: TATATTTATCCATACAAGAAAAAAAAAAAAAAAATA [CACACA_negctrl_site1328]
Second: AAAAAAAAAAATATATTAAAATAAAAAATATTAACA [GTGCAC_negctrl_site13]
The “gcPBM binding intensity (ln)” value of the first is lower: 9.44 for the first, 9.45 for the second.

Compared with “TACACCCACCCACATACACACACATACACATATATA [CACACA_site8503]”, “CCACTTAAAATAAAAAGTACATACAGGTGTTATACA [XGTACX_site8124]” is lower in “gcPBM binding intensity (ln)” value: 10.8 for the first, 9.49 for the second.

First: TTTAAATAAAATATTACACACTTAGAAAGATATATA [CACACA_site7684]
Second: AGCATATTATTTTAGGTGCACTTGAAATGTGTTAAC
The “gcPBM binding intensity (ln)” value of the first is lower: 9.57 for the first, 9.68 for the second.

First: TTTTTTTTTTATTGTACATGCAAAAAATTCCACACA [TGCATGCA_site279]
Second: CAAATAAAAACAAAACGTACGAATAAATTATTGTTA [XGTACX_site5136]
The “gcPBM binding intensity (ln)” value of the first is higher: 9.53 for the first, 9.49 for the second.

Going from “TATTTGATCTAAAGAGCATGCAAAAACGAACAAGAT [TGCATGCA_site136]” to “ATATCGTTATTTTTATGTACTAAAATATTTAATTAT [XGTACX_site3516]”, the “gcPBM binding intensity (ln)” value falls from 9.81 to 9.72.

Compared with “CACATATAAATATTAACACACATAATGAATTATATA [CACACA_site2741]”, ATATATAAAAATTAGGTGCATTAAATTAAAATATAT is lower in “gcPBM binding intensity (ln)” value: 9.79 for the first, 9.64 for the second.

First: ACACAAATAAATATAACATATATATTATATTATATT [CACACA_negctrl_site710]
Second: TTTATATAAATTTTTTGTACACAAGTAAAAACGCGT [XGTACX_site2459]
The “gcPBM binding intensity (ln)” value of the first is higher: 9.73 for the first, 9.36 for the second.

Compared with “TCAATATTAAATTATTGTACATGTATGTATATATAT [XGTACX_site3861]”, “TTTTTTTTTTTTTTTTTACACACTTTATTCAAACAA [CACACA_site9360]” is lower in “gcPBM binding intensity (ln)” value: 9.58 for the first, 9.32 for the second.

Going from “ATAAAATATATATATATAAAAATAAATACATAAATA [GTGCAC_negctrl_site157]” to “CATATACTTCTGTGCACACGAATATTTTTCTTCTTC [CACACA_site1407]”, the “gcPBM binding intensity (ln)” value rises from 9.82 to 9.97.

Going from “TGTTGTCCTAATTCTACACACAATGGTTTATTAAAA [CACACA_site2648]” to “TTTTAACGTAAAACATTGATGATATAAAAAATAGGA [GTGCAC_negctrl_site540]”, the “gcPBM binding intensity (ln)” value falls from 9.97 to 9.35.

Compared with “TATACTCATATTTTTACACACATATTTTTTCATATA [CACACA_site5412]”, “TTTTTTTTTTTTTTTTTTTTCACATGTGTGGAAAAA [GTGCAC_negctrl_site352]” is lower in “gcPBM binding intensity (ln)” value: 9.92 for the first, 8.88 for the second.

In the case of “AATTTAAAATATATAGTACACACGTGAACACAAATA [CACACA_site416]”, the “gcPBM binding intensity (ln)” value is reported as 9.78.
